Source: paper PMC4336329 (PLoS ONE, 2015)
About 14,000 (4.5%) of roughly 310,000 compounds showed an effect of 50% or more. The effect is printed as a negative number. Some of the results follow.

What follows are compounds tested against human ether-à-go-go-related gene (hERG) potassium channel (human, UniProt Q12809) (assay: primary screen, population patch clamp on CHO cells stably expressing hERG).
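Also: peak tail current of the secondary pulse compared with the same well before compound.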

human ether-à-go-go-related gene (hERG) potassium channel, sequence (Q12809 whole entry, looked up): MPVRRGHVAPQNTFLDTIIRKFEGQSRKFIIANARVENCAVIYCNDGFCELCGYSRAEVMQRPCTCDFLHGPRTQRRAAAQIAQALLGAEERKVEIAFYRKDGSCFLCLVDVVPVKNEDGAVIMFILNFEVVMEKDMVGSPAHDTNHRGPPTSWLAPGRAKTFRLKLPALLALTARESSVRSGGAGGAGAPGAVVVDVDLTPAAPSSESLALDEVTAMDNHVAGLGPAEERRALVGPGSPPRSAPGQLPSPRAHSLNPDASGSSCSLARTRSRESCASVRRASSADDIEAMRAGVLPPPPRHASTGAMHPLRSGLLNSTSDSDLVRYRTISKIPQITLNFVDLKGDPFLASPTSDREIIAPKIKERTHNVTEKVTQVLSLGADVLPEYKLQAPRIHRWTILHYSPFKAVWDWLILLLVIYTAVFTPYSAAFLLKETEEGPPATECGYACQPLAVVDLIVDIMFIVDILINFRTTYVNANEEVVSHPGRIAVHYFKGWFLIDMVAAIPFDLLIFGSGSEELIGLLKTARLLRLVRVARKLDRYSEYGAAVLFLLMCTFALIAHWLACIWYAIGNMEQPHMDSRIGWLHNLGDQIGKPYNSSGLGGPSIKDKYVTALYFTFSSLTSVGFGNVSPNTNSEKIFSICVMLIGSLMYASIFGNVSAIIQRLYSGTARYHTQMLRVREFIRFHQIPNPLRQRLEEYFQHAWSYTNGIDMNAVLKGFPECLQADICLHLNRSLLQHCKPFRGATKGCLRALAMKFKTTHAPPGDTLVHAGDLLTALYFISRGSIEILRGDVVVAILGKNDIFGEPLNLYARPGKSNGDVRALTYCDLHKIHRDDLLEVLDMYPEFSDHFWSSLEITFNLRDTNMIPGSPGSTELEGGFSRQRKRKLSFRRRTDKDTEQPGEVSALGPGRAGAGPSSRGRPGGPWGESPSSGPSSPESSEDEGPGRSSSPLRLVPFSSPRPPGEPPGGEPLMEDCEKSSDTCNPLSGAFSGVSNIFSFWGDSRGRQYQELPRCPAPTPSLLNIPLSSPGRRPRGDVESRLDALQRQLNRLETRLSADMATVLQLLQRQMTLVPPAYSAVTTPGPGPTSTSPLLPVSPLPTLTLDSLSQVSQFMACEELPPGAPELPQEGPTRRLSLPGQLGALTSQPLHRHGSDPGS

In order of falling “hERG current change (%, negative = inhibition) at 10uM” value:
1. CC1CCc2c(sc(NC(=O)c3cccs3)c2C(=O)O)C1 (stereo not shown)  34.7%
2. Cc1ccccc1CN(C)C1CCN(C)CC1  28.2%
3. COc1cc(/C=N/NC(=O)c2ccc(N3CCCC3=O)cc2)ccc1O  27.7%
4. O=C(CCS(=O)(=O)c1ccc(Cl)cc1)NCCC1=CCCCC1  26.7%
5. COc1cccc(NC(=O)c2ccc(NC(=O)C(C)(C)C)cc2)c1  24.9%
6. COc1ccc(-c2cc(C(=O)N3CCN(c4cccc(C)c4C)CC3)c3ccccc3n2)cc1OC  22.9%
7. CNS(=O)(=O)c1cc(Nc2ncnc3sccc23)ccc1C  20.7%
8. COc1ccc(NC(=O)CN(C)C(=O)Cc2n[nH]c(=O)c3ccccc23)cc1  20.5%
9. CCn1c(=O)c(=O)[nH]c2cc(C(=O)N3CCN(c4ccccc4F)CC3)ccc21  17.2%
10. O=C1CCCc2nn(-c3ccccc3)c(-c3ccncc3)c21  17.2%
11. C/C(=N\NC(=O)Cc1cccn1C)c1ccc2ccccc2c1  16.8%
12. Cc1ccc2c(=O)cc(C(=O)NC3CCS(=O)(=O)C3)oc2c1C (stereo not shown)  16.5%
13. CCc1nnc(NC(=O)c2ccc(OC)cc2)s1  16.4%
14. CN(C)c1nc(N(C)C)n(Cc2c(Cl)cccc2Cl)n1  16.2%
15. Fc1ccc(NC(=S)Nc2cccc(Cl)c2)cc1  14.4%
16. O=C1N/C(=N\S(=O)(=O)Cc2ccccc2)S/C1=C/c1cc([N+](=O)[O-])ccc1O  14.3%
17. Cc1cc(-c2nc3ccccc3c(=O)o2)ccc1[N+](=O)[O-]  12.5%
18. Cl.NCc1ccc2[nH]c(=O)[nH]c2c1  12.4%
19. Cc1nc(NC(=O)C2CCCCC2C(=O)O)sc1C (stereo not shown)  12%
20. COc1ccc(Cl)cc1C(=O)NC(=S)Nc1cc(-c2nc3ccccc3[nH]2)ccc1C  11.9%
21. COCc1[nH]nc2c1C(c1ccccc1F)C(C#N)=C(N)O2 (stereo not shown)  11%
22. Cc1csc2nc(CNC(=O)CCC(=O)O)cn12  10%
23. O=C(NCCC1=CCCCC1)C(=O)NCC(c1ccco1)N1CCN(c2ccc(F)cc2)CC1 (stereo not shown)  9.38%
24. CCN(CC)S(=O)(=O)c1ccc(N2CCOCC2)c(NC(=O)c2cc3ccccc3oc2=O)c1  9.38%
25. CC(NC(=O)C1CCN(S(=O)(=O)c2ccccc2)CC1)c1ccccc1 (stereo not shown)  9.25%
26. Cc1c(Cl)cccc1NC(=S)N1CCCCCC1  8.69%
27. Cc1cc(NC(=O)c2cc3ccccc3o2)ccc1NC(=O)c1ccccc1  8.6%
28. COc1ccc(N2CCN(CCCNC(=O)C3CCCN(S(=O)(=O)c4c(C)n[nH]c4C)C3)CC2)cc1 (stereo not shown)  8.03%
29. CC(C)C[C@@H](CO)N(Cc1ccccc1)S(=O)(=O)N(Cc1ccccc1)[C@@H](CO)CC(C)C  7.47%
30. COCCCNC(=S)Nc1c(C)cc(C)cc1C  7.19%
31. CCOc1ccccc1NC(=O)c1cnc2n(c1=O)CCS2  6.92%
32. O=C(CCc1nnc2ccc(N3CCC4(CC3)OCCO4)nn12)NCc1ccc(F)cc1  6.39%
33. O=C(COc1ccc2ccc(=O)oc2c1)NCCCN1CCCC1=O  5.61%
34. CCCNC(=O)c1onc(CSc2ccccn2)c1C(=O)NCCC  5.19%
35. CC(=O)Nc1ccc(C(=O)NCC2CCCCC2)cc1  5.18%
36. c1ccc(CSc2nnc(Cc3ccccc3)o2)cc1  4.99%
37. Cc1ccc(-c2nc3c(c(=O)c4ccccc4n3C)c(=O)n2-c2ccccc2)cc1  4.79%
38. O=C(O)C1CCCCC1C(=O)Nc1cc(C(F)(F)F)ccc1Cl (stereo not shown)  4%
39. Cc1ccc(C)c(C(=O)CN2C(=O)NC3(CCCCCCC3)C2=O)c1  3.92%
40. Cc1cc(=O)[nH]c2c1cnn2Cc1ccccc1  3.72%
41. CC(C)(C)OC(=O)N1Cc2ccccc2C[C@H]1C(=O)NCC(=O)Nc1ccc2c(c1)OCCO2  3.19%
42. COc1ccccc1NC(=O)COc1ccc(C(=O)OCC(=O)NC(C)(C)C)cc1OC  3.03%
43. COc1ccc(CCNC(=O)NC23CC4CC(CC(C4)C2)C3)cc1OC  2.84%
44. CC1(C)Cn2c(nnc2-c2cccc(O)c2)S1  2.7%
45. CCCc1ccc(Oc2cn[nH]c2-c2ccc(O)c(C)c2O)cc1  2.48%
46. C/C(CC(=O)N1CCN(C=O)CC1)=N\NC(=O)c1ccc([N+](=O)[O-])cc1  2.24%
47. CCN(CC)S(=O)(=O)c1ccc(NC(=O)c2cc(-c3ccccc3)nc3ccccc23)cc1  1.64%
48. CCOc1ccc2c(c1)OC1(CCC(C)C1)CC2=O (stereo not shown)  0.218%
49. Cc1cc(C)cc(N=C2NC(=O)CS2)c1  0.159%
50. CC1(C)C(c2ccccc2)=[N+]([O-])C2(CCCCC2=O)N1O (stereo not shown)  -0.325%
51. Cc1cccc(-c2noc(CN(C(=O)CCc3ccccc3)C(C)C)n2)c1  -1.04%
52. N#Cc1ccc2ccn(CC(=O)NCc3ccccc3)c2c1  -1.22%
53. CN(Cc1ccccc1)C(=O)CN(C1CCCCC1)S(C)(=O)=O  -1.23%
54. CN1C(=O)CC(N2CCN(C(=O)c3ccccc3)CC2)C1=O (stereo not shown)  -1.69%
55. O=C(O)c1cn(-c2ccccc2)nc1-c1cccnc1  -1.94%
56. COc1cc(/C=N/NC(=O)c2cccnc2)ccc1OC(=O)c1ccco1  -2.07%
57. COc1ccc(CCNC(=O)COc2ccc(S(=O)(=O)NC3CCCCC3)cc2Cl)cc1OC  -2.51%
58. COC(=O)c1sc(SC)c(-c2ccon2)c1C  -2.83%
59. O=C(NC1CCCC1)C(c1ccco1)N(C(=O)c1csnn1)c1ccccc1 (stereo not shown)  -3.12%
60. O=C(CCC(=O)NC1CCCCCC1)Nc1nnc(C(F)(F)F)s1  -3.16%
61. O=[N+]([O-])c1ccc(/C=N/N2CCCCC2)cc1  -3.67%
62. COc1cc(NC(=O)COc2cc(O)c3c(c2)OC(C)(C)CC3=O)cc(OC)c1OC  -3.91%
63. Cc1ccc(S(=O)(=O)Cc2ccc(C(=O)NC3CCCC3)o2)cc1  -4.55%
64. O=C(CCCC(=O)N(CC(=O)NC1CCCCC1)CC1CCCO1)Nc1ccccn1 (stereo not shown)  -5.32%
65. CC(=O)Nc1cccc(-c2csc(Nc3cccc(C)n3)n2)c1  -5.45%
66. CCS(=O)(=O)c1ccc2oc(SCC(=O)c3ccco3)nc2c1  -5.55%
67. Cn1c(=O)c2c(nc(NCc3ccc4c(c3)OCO4)n2Cc2ccc(F)cc2)n(C)c1=O  -5.77%
68. CN(C)c1nc(OCCOC(=O)c2ccccc2)nc(N(C)C)n1  -5.99%
69. Cc1ccc(S(=O)(=O)N2CCN(c3nn(C)c(=O)n(C)c3=O)CC2)cc1C  -7.08%
70. O=C1CCCN1CN(C(=O)c1ccc2c(c1)OCO2)c1cccc(Cl)c1  -7.64%
71. Cc1cc(C(=O)OCC(=O)N(CC(C)C)c2c(N)n(Cc3ccccc3)c(=O)[nH]c2=O)c2ccccc2n1  -9.62%
72. CN(C)c1nc(SCCOC(=O)Nc2ccccc2)nc(N(C)C)n1  -9.9%
73. Cc1cccc(C)c1NC(=S)N1CCC(N(C)CC2CCCO2)CC1 (stereo not shown)  -10.7%
74. Cc1ccsc1C(=O)OCC(=O)Nc1c(C)n(C)n(-c2ccccc2)c1=O  -12.5%
75. O=Cc1cccn1-c1ccc2ccccc2c1  -16.1%
76. O=C(COc1cccnc1[N+](=O)[O-])NCCc1ccc(F)cc1  -16.6%
77. Cc1cccc(OCCOC(=O)c2ccc(F)c(S(=O)(=O)N3CCOCC3)c2)c1  -18.1%
78. O=C(CCC(=O)N1CCc2ccccc2C1)N1CCN(S(=O)(=O)c2ccccc2)CC1  -23%
79. Cc1csc(NC(=O)CSc2nc(C(C)C)nc3c2c(=O)n(C)c(=O)n3C)n1  -25.5%
80. COC(=O)C1=C(c2ccc(S(C)(=O)=O)cc2)C[C@@H]2CC[C@H]1N2C(=O)NCc1ccccc1  -29.6%
81. Cc1ccccc1Nc1nc(N)nc(CSCC(=O)Nc2cccc(Br)c2)n1  -29.8%
82. Cc1nn(-c2ccccc2)c(C)c1C(=O)OCc1ccc(C#N)cc1  -34.9%
83. CCCCNC(=O)CCn1nc(-c2ccc(Cl)cc2)c2ccccc2c1=O  -37.9%
84. N#Cc1nc(COc2ccccc2F)oc1N1CCCCCC1  -38.5%
85. COc1cccc(C(=O)NC2CCCN(C3Cc4ccccc4C3)C2)c1OC (stereo not shown)  -41.7%
86. Cc1cccc(N2CCN(c3cc(C)nc4nnnn34)CC2C)c1 (stereo not shown)  -53.1%
87. Cc1ccc(-n2c(SCC(=O)NCc3ccco3)nnc2-c2cccnc2)cc1  -60.8%
88. Cc1cccn2c(=O)c3cc(C(=O)NCC4CCCO4)c(=N)n(CCN4CCOCC4)c3nc12 (stereo not shown)  -69.4%
